Measured values as given in PMC12820563, “FoxP3 forms a head-to-head dimer in vivo and stabilizes its multimerization on adjacent microsatellites”.
The other results are listed elsewhere or left out.

target: T1, MBP-FoxP1dN (Mus musculus, UniProt P58462 326-579); assay: PD-seq (MBP pull-down with sequencing); 20 mM Tris-HCl pH 7.5, 100 mM NaCl, 1.5 mM MgCl2, 0.4 uM protein, 0.1 uM dsDNA library, 30 min, room temperature, amylose pull-down; high values mean tight binding; conditions: protein: recombinant; tags: His6-MBP; chain copies: 2; dsDNA, one strand shown
T1 sequence: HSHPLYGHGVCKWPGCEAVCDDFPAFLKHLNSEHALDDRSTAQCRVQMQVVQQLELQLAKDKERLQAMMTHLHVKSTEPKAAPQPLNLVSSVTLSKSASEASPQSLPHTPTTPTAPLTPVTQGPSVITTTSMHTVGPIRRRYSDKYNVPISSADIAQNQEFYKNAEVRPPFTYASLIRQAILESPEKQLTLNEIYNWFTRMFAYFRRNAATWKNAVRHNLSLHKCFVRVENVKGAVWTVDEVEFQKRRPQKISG
Procedure, shortened: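 Amylose resin was used to capture complexes formed during 30 min at room temperature in Tris pH 7.5 buffer with NaCl and MgCl2 between 0.4 µM His6-MBP-tagged mouse FoxP3 or FoxP1 fragment lacking the N-terminus, expressed in E. coli, and 0.1 µM Klenow-filled double-stranded degenerate DNA library. After three washes, the DNA was released with proteinase K, barcoded by PCR and sequenced on Illumina. Binding is pooled-replicate reads-per-million enrichment, pull-down over input.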

Sequence | binding signal
GATGATTGTTCTCCCAGCTGATGAATTGGGGTTGTCGAGTAAACAAATTTTCCTAATCTTTCTGTTCAAGCGCCATCTAC | 0.968 RPM ratio (pull-down/input)
GATGATTGTTCTCCCAGCTGATGAATTTGACCGATCGAGTAAACAAATTTTCCTAATCTTTCTGTTCAAGCGCCATCTAC | 0.841 RPM ratio (pull-down/input)
GATGATTGTTCTCCCAGCTGATGAATTTCACGTATCGAGTAAACAAATTTTCCTAATCTTTCTGTTCAAGCGCCATCTAC | 0.965 RPM ratio (pull-down/input)
GATGATTGTTCTCCCAGCTGATGAATTTGCATAGTCGAGTAAACAAATTTTCCTAATCTTTCTGTTCAAGCGCCATCTAC | 1.01 RPM ratio (pull-down/input)
GATGATTGTTCTCCCAGCTGATGAATTGGTCGCCTCGAGTAAACAAATTTTCCTAATCTTTCTGTTCAAGCGCCATCTAC | 0.913 RPM ratio (pull-down/input)
GATGATTGTTCTCCCAGCTGATGAATTGACTCTGTCGAGTAAACAAATTTTCCTAATCTTTCTGTTCAAGCGCCATCTAC | 1.01 RPM ratio (pull-down/input)
GATGATTGTTCTCCCAGCTGATGAATTGTAGCAATCGAGTAAACAAATTTTCCTAATCTTTCTGTTCAAGCGCCATCTAC | 1.25 RPM ratio (pull-down/input)
GATGATTGTTCTCCCAGCTGATGAATTTTGTGCTTCGAGTAAACAAATTTTCCTAATCTTTCTGTTCAAGCGCCATCTAC | 1.09 RPM ratio (pull-down/input)
GATGATTGTTCTCCCAGCTGATGAATTAACACATTCGAGTAAACAAATTTTCCTAATCTTTCTGTTCAAGCGCCATCTAC | 1.18 RPM ratio (pull-down/input)
GATGATTGTTCTCCCAGCTGATGAATTTCACCAGTCGAGTAAACAAATTTTCCTAATCTTTCTGTTCAAGCGCCATCTAC | 0.84 RPM ratio (pull-down/input)
GATGATTGTTCTCCCAGCTGATGAATTCCATTGATCGAGTAAACAAATTTTCCTAATCTTTCTGTTCAAGCGCCATCTAC | 0.924 RPM ratio (pull-down/input)
GATGATTGTTCTCCCAGCTGATGAATTTGCGCGATCGAGTAAACAAATTTTCCTAATCTTTCTGTTCAAGCGCCATCTAC | 0.992 RPM ratio (pull-down/input)
GATGATTGTTCTCCCAGCTGATGAATTGAGTGTCTCGAGTAAACAAATTTTCCTAATCTTTCTGTTCAAGCGCCATCTAC | 0.863 RPM ratio (pull-down/input)
GATGATTGTTCTCCCAGCTGATGAATTGAAGTAATCGAGTAAACAAATTTTCCTAATCTTTCTGTTCAAGCGCCATCTAC | 1.4 RPM ratio (pull-down/input)
GATGATTGTTCTCCCAGCTGATGAATTACTCCTGTCGAGTAAACAAATTTTCCTAATCTTTCTGTTCAAGCGCCATCTAC | 0.897 RPM ratio (pull-down/input)
GATGATTGTTCTCCCAGCTGATGAATTCTTCAGATCGAGTAAACAAATTTTCCTAATCTTTCTGTTCAAGCGCCATCTAC | 0.891 RPM ratio (pull-down/input)
GATGATTGTTCTCCCAGCTGATGAATTTATCTATTCGAGTAAACAAATTTTCCTAATCTTTCTGTTCAAGCGCCATCTAC | 1.24 RPM ratio (pull-down/input)
GATGATTGTTCTCCCAGCTGATGAATTGCAGTGATCGAGTAAACAAATTTTCCTAATCTTTCTGTTCAAGCGCCATCTAC | 1.11 RPM ratio (pull-down/input)
GATGATTGTTCTCCCAGCTGATGAATTAATTTTCTCGAGTAAACAAATTTTCCTAATCTTTCTGTTCAAGCGCCATCTAC | 0.924 RPM ratio (pull-down/input)
GATGATTGTTCTCCCAGCTGATGAATTGCCACACTCGAGTAAACAAATTTTCCTAATCTTTCTGTTCAAGCGCCATCTAC | 1.1 RPM ratio (pull-down/input)
GATGATTGTTCTCCCAGCTGATGAATTGTGCAAGTCGAGTAAACAAATTTTCCTAATCTTTCTGTTCAAGCGCCATCTAC | 1.03 RPM ratio (pull-down/input)

Sequence | binding signal
GATGATTGTTCTCCCAGCTGATGAATTTTTCTTATCGAGTAAACAAATTTTCCTAATCTTTCTGTTCAAGCGCCATCTAC | 1.1 RPM ratio (pull-down/input)
GATGATTGTTCTCCCAGCTGATGAATTGTTGCTCTCGAGTAAACAAATTTTCCTAATCTTTCTGTTCAAGCGCCATCTAC | 1.39 RPM ratio (pull-down/input)
GATGATTGTTCTCCCAGCTGATGAATTGACCCCGTCGAGTAAACAAATTTTCCTAATCTTTCTGTTCAAGCGCCATCTAC | 0.918 RPM ratio (pull-down/input)
GATGATTGTTCTCCCAGCTGATGAATTCAAGGGTTCGAGTAAACAAATTTTCCTAATCTTTCTGTTCAAGCGCCATCTAC | 0.756 RPM ratio (pull-down/input)
GATGATTGTTCTCCCAGCTGATGAATTATAAAACTCGAGTAAACAAATTTTCCTAATCTTTCTGTTCAAGCGCCATCTAC | 0.885 RPM ratio (pull-down/input)
GATGATTGTTCTCCCAGCTGATGAATTCGTCGCATCGAGTAAACAAATTTTCCTAATCTTTCTGTTCAAGCGCCATCTAC | 1.06 RPM ratio (pull-down/input)
GATGATTGTTCTCCCAGCTGATGAATTTTCATCGTCGAGTAAACAAATTTTCCTAATCTTTCTGTTCAAGCGCCATCTAC | 0.816 RPM ratio (pull-down/input)
GATGATTGTTCTCCCAGCTGATGAATTCAACCGGTCGAGTAAACAAATTTTCCTAATCTTTCTGTTCAAGCGCCATCTAC | 0.776 RPM ratio (pull-down/input)
GATGATTGTTCTCCCAGCTGATGAATTTGTTTTTTCGAGTAAACAAATTTTCCTAATCTTTCTGTTCAAGCGCCATCTAC | 2.09 RPM ratio (pull-down/input)
GATGATTGTTCTCCCAGCTGATGAATTAGGTAGTTCGAGTAAACAAATTTTCCTAATCTTTCTGTTCAAGCGCCATCTAC | 0.881 RPM ratio (pull-down/input)
GATGATTGTTCTCCCAGCTGATGAATTATATTAATCGAGTAAACAAATTTTCCTAATCTTTCTGTTCAAGCGCCATCTAC | 1.1 RPM ratio (pull-down/input)
GATGATTGTTCTCCCAGCTGATGAATTACACCCTTCGAGTAAACAAATTTTCCTAATCTTTCTGTTCAAGCGCCATCTAC | 1.15 RPM ratio (pull-down/input)
GATGATTGTTCTCCCAGCTGATGAATTCAAACAATCGAGTAAACAAATTTTCCTAATCTTTCTGTTCAAGCGCCATCTAC | 1.81 RPM ratio (pull-down/input)
GATGATTGTTCTCCCAGCTGATGAATTCGATAAGTCGAGTAAACAAATTTTCCTAATCTTTCTGTTCAAGCGCCATCTAC | 0.86 RPM ratio (pull-down/input)
GATGATTGTTCTCCCAGCTGATGAATTTGACGTTTCGAGTAAACAAATTTTCCTAATCTTTCTGTTCAAGCGCCATCTAC | 0.918 RPM ratio (pull-down/input)
GATGATTGTTCTCCCAGCTGATGAATTTTCCCGCTCGAGTAAACAAATTTTCCTAATCTTTCTGTTCAAGCGCCATCTAC | 0.808 RPM ratio (pull-down/input)
GATGATTGTTCTCCCAGCTGATGAATTTACATCGTCGAGTAAACAAATTTTCCTAATCTTTCTGTTCAAGCGCCATCTAC | 1.33 RPM ratio (pull-down/input)
GATGATTGTTCTCCCAGCTGATGAATTCGAACACTCGAGTAAACAAATTTTCCTAATCTTTCTGTTCAAGCGCCATCTAC | 0.896 RPM ratio (pull-down/input)
GATGATTGTTCTCCCAGCTGATGAATTCTCCCTGTCGAGTAAACAAATTTTCCTAATCTTTCTGTTCAAGCGCCATCTAC | 0.852 RPM ratio (pull-down/input)
GATGATTGTTCTCCCAGCTGATGAATTTCATCCTTCGAGTAAACAAATTTTCCTAATCTTTCTGTTCAAGCGCCATCTAC | 0.781 RPM ratio (pull-down/input)
GATGATTGTTCTCCCAGCTGATGAATTAGCGCAATCGAGTAAACAAATTTTCCTAATCTTTCTGTTCAAGCGCCATCTAC | 1.31 RPM ratio (pull-down/input)

Sequence | binding signal
GATGATTGTTCTCCCAGCTGATGAATTGCCAACGTCGAGTAAACAAATTTTCCTAATCTTTCTGTTCAAGCGCCATCTAC | 0.91 RPM ratio (pull-down/input)
GATGATTGTTCTCCCAGCTGATGAATTAAGAGAGTCGAGTAAACAAATTTTCCTAATCTTTCTGTTCAAGCGCCATCTAC | 0.756 RPM ratio (pull-down/input)
GATGATTGTTCTCCCAGCTGATGAATTGGATTAGTCGAGTAAACAAATTTTCCTAATCTTTCTGTTCAAGCGCCATCTAC | 0.807 RPM ratio (pull-down/input)
GATGATTGTTCTCCCAGCTGATGAATTGCCCGTATCGAGTAAACAAATTTTCCTAATCTTTCTGTTCAAGCGCCATCTAC | 0.945 RPM ratio (pull-down/input)
GATGATTGTTCTCCCAGCTGATGAATTTAAGGTTTCGAGTAAACAAATTTTCCTAATCTTTCTGTTCAAGCGCCATCTAC | 0.852 RPM ratio (pull-down/input)
GATGATTGTTCTCCCAGCTGATGAATTCACGCGGTCGAGTAAACAAATTTTCCTAATCTTTCTGTTCAAGCGCCATCTAC | 0.873 RPM ratio (pull-down/input)
GATGATTGTTCTCCCAGCTGATGAATTACTCGTGTCGAGTAAACAAATTTTCCTAATCTTTCTGTTCAAGCGCCATCTAC | 0.98 RPM ratio (pull-down/input)
GATGATTGTTCTCCCAGCTGATGAATTCTCTAGATCGAGTAAACAAATTTTCCTAATCTTTCTGTTCAAGCGCCATCTAC | 0.938 RPM ratio (pull-down/input)
GATGATTGTTCTCCCAGCTGATGAATTTTACCGTTCGAGTAAACAAATTTTCCTAATCTTTCTGTTCAAGCGCCATCTAC | 0.867 RPM ratio (pull-down/input)
GATGATTGTTCTCCCAGCTGATGAATTAGGTTCATCGAGTAAACAAATTTTCCTAATCTTTCTGTTCAAGCGCCATCTAC | 0.921 RPM ratio (pull-down/input)
GATGATTGTTCTCCCAGCTGATGAATTACCAATGTCGAGTAAACAAATTTTCCTAATCTTTCTGTTCAAGCGCCATCTAC | 1.06 RPM ratio (pull-down/input)
GATGATTGTTCTCCCAGCTGATGAATTGGGCTACTCGAGTAAACAAATTTTCCTAATCTTTCTGTTCAAGCGCCATCTAC | 0.851 RPM ratio (pull-down/input)
GATGATTGTTCTCCCAGCTGATGAATTCCCCATATCGAGTAAACAAATTTTCCTAATCTTTCTGTTCAAGCGCCATCTAC | 0.898 RPM ratio (pull-down/input)
GATGATTGTTCTCCCAGCTGATGAATTCCGAAATTCGAGTAAACAAATTTTCCTAATCTTTCTGTTCAAGCGCCATCTAC | 0.838 RPM ratio (pull-down/input)
GATGATTGTTCTCCCAGCTGATGAATTTGTCTCGTCGAGTAAACAAATTTTCCTAATCTTTCTGTTCAAGCGCCATCTAC | 0.937 RPM ratio (pull-down/input)
GATGATTGTTCTCCCAGCTGATGAATTAGTACAATCGAGTAAACAAATTTTCCTAATCTTTCTGTTCAAGCGCCATCTAC | 1.42 RPM ratio (pull-down/input)
GATGATTGTTCTCCCAGCTGATGAATTGGTTTCTTCGAGTAAACAAATTTTCCTAATCTTTCTGTTCAAGCGCCATCTAC | 1.03 RPM ratio (pull-down/input)
GATGATTGTTCTCCCAGCTGATGAATTTCCAAGCTCGAGTAAACAAATTTTCCTAATCTTTCTGTTCAAGCGCCATCTAC | 0.813 RPM ratio (pull-down/input)
GATGATTGTTCTCCCAGCTGATGAATTAGATCGATCGAGTAAACAAATTTTCCTAATCTTTCTGTTCAAGCGCCATCTAC | 0.916 RPM ratio (pull-down/input)
GATGATTGTTCTCCCAGCTGATGAATTAAAGGTCTCGAGTAAACAAATTTTCCTAATCTTTCTGTTCAAGCGCCATCTAC | 0.774 RPM ratio (pull-down/input)
GATGATTGTTCTCCCAGCTGATGAATTCGTTTCTTCGAGTAAACAAATTTTCCTAATCTTTCTGTTCAAGCGCCATCTAC | 0.97 RPM ratio (pull-down/input)
